According to patent US20240252671A1, “NEODEGRADER-ANTI-CD33 ANTIBODY CONJUGATES” (priority 2021, published 2024):

Columns and labels:
[1] = tested on: non-AML CD33-negative cells; assay: In vitro cytotoxicity, CellTiter-Glo, CD33-negative cell panel (Example 6); format: cell-based, human; conditions: CD33-negative cell models, 72 hours, FIG. 2
Protocol: (§1) In vitro cytotoxicity was measured using a panel of CD33 positive acute myeloid leukemia cell lines and a panel of non-AML CD33-negative cells. The cells, at a predetermined concentration, were plated into 96 well plates, and, after overnight incubation at 37° C./5CO2, serial dilutions of each test article (TA) were added to the cells. Cells were incubated with test articles for 72 hours, and viability was detected with CellTiter-Glo® reagent (Promega). The luminescent values were normalized for each cell line, and the IC50s were calculated using Prizm software.

[2] = tested on: CD33 positive acute myeloid leukemia cell lines; assay: In vitro cytotoxicity, CellTiter-Glo, CD33 positive AML cell line panel (Example 6); format: cell-based, human; conditions: CD33-positive AML cells, 72 hours, FIG. 2
Protocol: as §1

B1: AB1—Compound (Ia) (conjugate)
heavy: QVQLQQPGAEVVKPGASVKMSCKASGYTFTSYYIHWIKQTPGQGLEWVGVIYPGNDDISYNQKFQGKATLTADKSSTTAYMQLSSLTSEDSAVYYCAREVRLRYFDVWGQGTTVTVSSASTKGPSVFPLAPCSRSTSESTAALGCLVKDYFPEPVTVSWNSGALTSGVHTFPAVLQSSGLYSLSSVVTVPSSSLGTKTYTCNVDHKPSNTKVDKRV[sequence of human IgG4 Fc with S228P (EU numbers) not given]
light: EIVLTQSPGSLAVSPGERVTMSCKSSQSVFFSSSQKNYLAWYQQIPGQSPRLLIYWASTRESGVPDRFTGSGSGTDFTLTISSVQPEDLAIYYCHQYLSSRTFGQGTKLEIKRTVAAPSVFIFPPSDEQLKSGTASVVCLLNNFYPREAKVQWKVDNALQSGNSQESVTEQDSKDSTYSLSSTLTLSKADYEKHKVYACEVTHQGLSSPVTKSFNRGEC
For B1, the “in vitro activity (cytotoxicity)” value [1] was “inactive” and the “overall in vitro efficacy (cytotoxicity)” value [2] was “comparable overall in vitro efficacy as CC-885 (a known GSPT1 degrader) or Mylotarg”.
